Reference: PubChem BioAssay (NCATS)
This list was built around the results that the source calls inconclusive (neither active nor inactive); the mix of calls is not that of the screen. A potency beside an inconclusive call is a rough fit, not a confirmed value. The source made the active and inactive calls. Calls come from the whole dose curve; as a rule, active = well fitted cell-killing curve with a large enough effect; inconclusive = small, poorly fitted or top-dose-only effect, or effect the other way; inactive = no such curve, though single readings can be large or run the other way.

Assay: Viability qHTS for spleen associated tyrosine kinase inhibitor (SYKi) naive MV4-11 cells (AID 1963823); note: nearly all actives have a fitted effect of over 40% in size
Details: MV4-11 AML viability, CellTiter-Glo luminescence, 72 h; viability (% of control): at 45 µM (top of the series)
Procedure, shortened: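 Viability of MV4-11 AML cells lacking prior SYK inhibitor exposure is scored by CellTiter-Glo luminescence following 72 hr compound incubation at 37 C, 5% CO2, seeded at 500 cells per well.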
Potency is the fitted concentration of half-maximal effect; tags give direction and shape of the fitted curve.

Compound	Potency	viability (% of control)
C[C@]12CC[C@@H]3c4ccc(O)cc4CC[C@H]3[C@@H]1CCC2=O	inconclusive: 0.0119 µM [cytotoxic, full curve, poor fit]	
COc1ccc(OC)c(C(O)CNC(=O)CN)c1 (stereo not drawn)		inactive: 62%
CC(=O)OC1C(O)C(C)=C(CCC(C)CC(=O)O)C2(C)CCCC(C)(C)C12 (stereo not drawn)	inconclusive: 16.1 µM [cytotoxic, partial curve, poor fit]	
CCC(COC)n1nnc2c(Nc3ccc(OC)cc3C)nc(C)cc21 (stereo not drawn)	inconclusive: 20.6 µM [cytotoxic, partial curve, poor fit]	
CCC/C=C/C(=O)O[C@H]1CC(C)(C)CC2[C@]13[C@H](O)O[C@@]21CCC2[C@@]4(C)CC[C@H](O[C@@H]5O[C@H](C(=O)O)[C@@H](O)[C@H](O[C@@H]6O[C@H](CO)[C@H](O)[C@H](O)[C@H]6O[C@@H]6O[C@@H](C)[C@H](O)[C@@H](O)[C@H]6O[C@@H]6OC[C@](O)(CO)[C@H]6O)[C@H]5O[C@@H]5O[C@H](CO)[C@H](O)[C@H](O)[C@H]5O)C(C)(C)C4CC[C@@]2(C)[C@]1(C)C[C@H]3OC(C)=O (stereo partly drawn)		inactive: 57.2% [at 9.25 µM]
O=C(Nc1cc(C(F)(F)F)cc(C(F)(F)F)c1)c1cnc(Cl)nc1C(F)(F)F	inconclusive: 20.6 µM [cytotoxic, partial curve]	
CC1=C2C(=O)C=C(CO)C2C2OC(=O)C(CS(=O)(=O)O)C2C(OC(=O)Cc2ccc(O)cc2)C1 (stereo not drawn)		inactive: 72% [at 17.3 µM]
O=c1c(-c2ccc(O)cc2)coc2cc(O[C@@H]3O[C@H](CO)[C@@H](O)[C@H](O)[C@H]3O)ccc12	inconclusive: 20.9 µM [cytotoxic, partial curve]	
